# This is a selection; strong and weak results do not stand in their true shares. The list includes weakly bound sequences.
# Target: T1, GST-Ap-NF-kB RHD (UniProt A0A913YAJ5)
# T1 sequence: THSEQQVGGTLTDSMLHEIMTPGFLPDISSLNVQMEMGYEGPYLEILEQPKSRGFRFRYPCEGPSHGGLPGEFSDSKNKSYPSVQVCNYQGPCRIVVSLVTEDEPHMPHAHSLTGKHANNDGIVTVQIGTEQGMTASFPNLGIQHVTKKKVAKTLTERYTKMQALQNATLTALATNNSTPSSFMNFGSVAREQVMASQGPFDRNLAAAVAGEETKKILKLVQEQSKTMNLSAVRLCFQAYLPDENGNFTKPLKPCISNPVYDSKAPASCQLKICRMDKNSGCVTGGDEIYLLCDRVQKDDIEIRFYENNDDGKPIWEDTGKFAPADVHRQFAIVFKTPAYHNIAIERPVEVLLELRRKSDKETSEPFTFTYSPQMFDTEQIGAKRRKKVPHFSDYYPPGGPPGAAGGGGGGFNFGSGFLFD
# Assay: protein-binding microarray (PBM)
# Conditions: PBM: ~300 nM protein, 6 mM HEPES pH 7.8, 80 mM KCl, 0.5 mM EDTA, 0.5 mM EGTA, 6% glycerol, 35 ng/ul poly-dIdC, 1% milk, 1 h, room temperature; high values mean tight binding; double strand, one strand shown
row,Sequence,binding signal
1,CCGATTAACATCACAAGTTCCCCTGATGTTAATCGGGTCTTGATTCGCTTGACGCTGCTG,7.44 z-score
2,CCGATTAACATCAGGGAAAACCCTGATGTTAATCGGGTCTTGATTCGCTTGACGCTGCTG,7.33 z-score
3,CCGATTAACATCAGACTTTCCCATGATGTTAATCGGGTCTTGATTCGCTTGACGCTGCTG,3 z-score
4,CCGATTAACATCAATCCACCCCCTGATGTTAATCGGGTCTTGATTCGCTTGACGCTGCTG,3.95 z-score
5,CCGATTAACATCAAAACTCCCCCTGATGTTAATCGGGTCTTGATTCGCTTGACGCTGCTG,9.31 z-score
6,CCGATTAACATCACCCACCCCCCTGATGTTAATCGGGTCTTGATTCGCTTGACGCTGCTG,3.58 z-score
7,CCGATTAACATCAGATCCCCCCCTGATGTTAATCGGGTCTTGATTCGCTTGACGCTGCTG,8.16 z-score
8,CCGATTAACATCAGGAAAAAAACTGATGTTAATCGGGTCTTGATTCGCTTGACGCTGCTG,-0.855 z-score
9,CCGATTAACATCACATGGGAATCTGATGTTAATCGGGTCTTGATTCGCTTGACGCTGCTG,1 z-score

# Target: T2, GST-Aq-NF-kB (UniProt A9Y5G7)
# T2 sequence: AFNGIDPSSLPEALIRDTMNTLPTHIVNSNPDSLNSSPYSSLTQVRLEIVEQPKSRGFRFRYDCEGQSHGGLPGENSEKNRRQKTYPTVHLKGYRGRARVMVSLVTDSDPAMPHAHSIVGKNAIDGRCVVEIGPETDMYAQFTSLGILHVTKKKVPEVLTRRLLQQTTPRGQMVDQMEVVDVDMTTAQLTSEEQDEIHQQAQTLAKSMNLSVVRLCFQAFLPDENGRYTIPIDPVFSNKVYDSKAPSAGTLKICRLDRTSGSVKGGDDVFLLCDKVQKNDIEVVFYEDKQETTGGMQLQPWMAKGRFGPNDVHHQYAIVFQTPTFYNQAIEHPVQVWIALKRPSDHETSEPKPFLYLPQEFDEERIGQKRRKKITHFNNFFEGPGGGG
# Assay: protein-binding microarray (PBM)
# Conditions: PBM: ~300 nM protein, 6 mM HEPES pH 7.8, 80 mM KCl, 0.5 mM EDTA, 0.5 mM EGTA, 6% glycerol, 35 ng/ul poly-dIdC, 1% milk, 1 h, room temperature; Ap Aiptasia and Nv Nematostella (sea anemones) / Co Capsaspora / Aq Amphimedon (sponge) / Dm Drosophila / Hu human; RHD is the Rel homology domain; high values mean tight binding; most listed sequences are background and not binding sites; double strand, one strand shown
row,Sequence,binding signal
1,CCGATTAACATCACAAGTTCCCCTGATGTTAATCGGGTCTTGATTCGCTTGACGCTGCTG,6.21 z-score
2,CCGATTAACATCAGGGAAGAACCTGATGTTAATCGGGTCTTGATTCGCTTGACGCTGCTG,5.54 z-score
3,CCGATTAACATCAGGGAAAACCCTGATGTTAATCGGGTCTTGATTCGCTTGACGCTGCTG,10.2 z-score
4,CCGATTAACATCAGACTTTCCCATGATGTTAATCGGGTCTTGATTCGCTTGACGCTGCTG,4.28 z-score
5,CCGATTAACATCAAGAAGTCCCCTGATGTTAATCGGGTCTTGATTCGCTTGACGCTGCTG,6.79 z-score
6,CCGATTAACATCAATCCACCCCCTGATGTTAATCGGGTCTTGATTCGCTTGACGCTGCTG,3.63 z-score
7,CCGATTAACATCACGGGGAAACCTGATGTTAATCGGGTCTTGATTCGCTTGACGCTGCTG,6.23 z-score
8,CCGATTAACATCAATACACCCCCTGATGTTAATCGGGTCTTGATTCGCTTGACGCTGCTG,3.5 z-score
9,CCGATTAACATCAAGGGGGTAAATGATGTTAATCGGGTCTTGATTCGCTTGACGCTGCTG,4.26 z-score
10,CCGATTAACATCACGCCCCCCCCTGATGTTAATCGGGTCTTGATTCGCTTGACGCTGCTG,4.89 z-score
11,CCGATTAACATCACCCATTTCCCTGATGTTAATCGGGTCTTGATTCGCTTGACGCTGCTG,2.52 z-score
12,CCGATTAACATCAGGGGAAGTTATGATGTTAATCGGGTCTTGATTCGCTTGACGCTGCTG,7.08 z-score
13,CCGATTAACATCAGGTATTCCCATGATGTTAATCGGGTCTTGATTCGCTTGACGCTGCTG,4.66 z-score
14,CCGATTAACATCAACTCCCCCCCTGATGTTAATCGGGTCTTGATTCGCTTGACGCTGCTG,5.08 z-score
15,CCGATTAACATCAAAATTCCCTATGATGTTAATCGGGTCTTGATTCGCTTGACGCTGCTG,6.99 z-score
16,CCGATTAACATCAAAACTCCCCCTGATGTTAATCGGGTCTTGATTCGCTTGACGCTGCTG,7.6 z-score
17,CCGATTAACATCAGGGAGGGTAATGATGTTAATCGGGTCTTGATTCGCTTGACGCTGCTG,2.39 z-score
18,CCGATTAACATCACGGGAATTCCTGATGTTAATCGGGTCTTGATTCGCTTGACGCTGCTG,8.38 z-score
19,CCGATTAACATCAAATACCCCCATGATGTTAATCGGGTCTTGATTCGCTTGACGCTGCTG,4.48 z-score
20,CCGATTAACATCACGGGAAAATCTGATGTTAATCGGGTCTTGATTCGCTTGACGCTGCTG,5.16 z-score

row,Sequence,binding signal
1,CCGATTAACATCAGGGAATTTAATGATGTTAATCGGGTCTTGATTCGCTTGACGCTGCTG,5.09 z-score
2,CCGATTAACATCACCCACCCCCCTGATGTTAATCGGGTCTTGATTCGCTTGACGCTGCTG,3.84 z-score
3,CCGATTAACATCAAATTCCCAACTGATGTTAATCGGGTCTTGATTCGCTTGACGCTGCTG,2.22 z-score
4,CCGATTAACATCAGATCCCCCCCTGATGTTAATCGGGTCTTGATTCGCTTGACGCTGCTG,5.39 z-score
5,CCGATTAACATCAGGGGGTAACCTGATGTTAATCGGGTCTTGATTCGCTTGACGCTGCTG,5.48 z-score
6,CCGATTAACATCAGGAAAAAAACTGATGTTAATCGGGTCTTGATTCGCTTGACGCTGCTG,0.525 z-score
7,CCGATTAACATCACGGAAATCCCTGATGTTAATCGGGTCTTGATTCGCTTGACGCTGCTG,6.11 z-score
8,CCGATTAACATCAGGGTATTTACTGATGTTAATCGGGTCTTGATTCGCTTGACGCTGCTG,6.01 z-score
9,CCGATTAACATCAAGATACCCCCTGATGTTAATCGGGTCTTGATTCGCTTGACGCTGCTG,4.36 z-score
10,CCGATTAACATCAAATCCCCCCTTGATGTTAATCGGGTCTTGATTCGCTTGACGCTGCTG,6.8 z-score
11,CCGATTAACATCAATTTACCCCCTGATGTTAATCGGGTCTTGATTCGCTTGACGCTGCTG,4.56 z-score
12,CCGATTAACATCACATGGGAATCTGATGTTAATCGGGTCTTGATTCGCTTGACGCTGCTG,1.14 z-score
13,CCGATTAACATCAGGGGACTCCATGATGTTAATCGGGTCTTGATTCGCTTGACGCTGCTG,4.63 z-score
14,CCGATTAACATCACATTATCCCCTGATGTTAATCGGGTCTTGATTCGCTTGACGCTGCTG,3.81 z-score
15,CCGATTAACATCACCAAAACCCCTGATGTTAATCGGGTCTTGATTCGCTTGACGCTGCTG,3.55 z-score
16,CCGATTAACATCAGGGGATTTGATGATGTTAATCGGGTCTTGATTCGCTTGACGCTGCTG,4.26 z-score
17,CCGATTAACATCAGAGCTTCCCCTGATGTTAATCGGGTCTTGATTCGCTTGACGCTGCTG,4.57 z-score
18,CCGATTAACATCAGAAATACCCATGATGTTAATCGGGTCTTGATTCGCTTGACGCTGCTG,4.73 z-score
19,CCGATTAACATCAAGGGGTTTTCTGATGTTAATCGGGTCTTGATTCGCTTGACGCTGCTG,6.95 z-score
20,CCGATTAACATCAGGGAAAATGATGATGTTAATCGGGTCTTGATTCGCTTGACGCTGCTG,3.05 z-score
